# From the supplement of paper PMC8728848
# The list shows a part of the results.
# B1: GNAT (Pseudomonas aeruginosa), Q9HV14 (protein)
# chain: MQLSHRPAETGDLETVAGFPQDRDELFYCYPKAIWPFSVAQLAAAIAERRGSTVAVHDGQVLGFANFYQWQHGDFCALGNMMVAPAARGLGVARYLIGVMENLAREQYKARLMKISCFNANAAGLLLYTQLGYQPRAIAERHDPDGRRVALIQMDKPLEP
# How the values were obtained:
# Experiment in all cases: glycan array binding signal (z-score within array); higher = stronger binding
# Conditions in all cases: glycan notation: IUPAC condensed, linker removed
# [1] = molecular target: Fuc(a1-2)Gal(b1-4)[Fuc(a1-3)]GlcNAc
# How it was run: (§1)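 Negative Z-scores can be read as non-binding. The Z-score is calculated within each array and then averaged across arrays of one protein sequence at different concentrations or buffers and across linkers. Arrays, 3228 in all, were curated from the Consortium for Functional Glycomics database and kept only where the protein sequence was available.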
# [2] = molecular target: Fuc(a1-2)Gal(b1-4)[Fuc(a1-3)]GlcNAc(b1-2)Man(a1-3)[Fuc(a1-2)Gal(b1-4)[Fuc(a1-3)]GlcNAc(b1-2)Man(a1-6)]Man(b1-4)GlcNAc(b1-4)GlcNAc
# How it was run: as §1
# [3] = molecular target: Fuc(a1-2)Gal(b1-4)[Fuc(a1-3)]GlcNAc(b1-2)[Fuc(a1-2)Gal(b1-4)[Fuc(a1-3)]GlcNAc(b1-4)]Man(a1-3)[Fuc(a1-2)Gal(b1-4)[Fuc(a1-3)]GlcNAc(b1-2)Man(a1-6)]Man(b1-4)GlcNAc(b1-4)GlcNAc
# How it was run: as §1
# [4] = molecular target: Fuc(a1-2)Gal(b1-4)[Fuc(a1-3)]GlcNAc(b1-3)Gal(b1-4)[Fuc(a1-3)]GlcNAc
# How it was run: as §1
# [5] = molecular target: Fuc(a1-2)Gal(b1-4)[Fuc(a1-3)]GlcNAc(b1-3)Gal(b1-4)[Fuc(a1-3)]GlcNAc(b1-3)Gal(b1-4)[Fuc(a1-3)]GlcNAc
# How it was run: as §1
# [6] = molecular target: Fuc(a1-2)Gal(b1-4)[Fuc(a1-3)]GlcNAc(b1-3)GalNAc
# How it was run: as §1
# Fuc(a1-2)Gal6S(b1-4)Glc = molecular target: Fuc(a1-2)Gal6S(b1-4)Glc
# How it was run: as §1
# [7] = molecular target: Fuc(a1-2)Gal6S(b1-4)Glc6S
# How it was run: as §1
# [8] = molecular target: Fuc(a1-2)Gal6S(b1-4)GlcNAc
# How it was run: as §1
# Fuc(a1-2)[Gal(a1-3)]Gal = molecular target: Fuc(a1-2)[Gal(a1-3)]Gal
# How it was run: as §1
# [9] = molecular target: Fuc(a1-2)[Gal(a1-3)]Gal(b1-3)GalNAc
# How it was run: as §1
# [10] = molecular target: Fuc(a1-2)[Gal(a1-3)]Gal(b1-3)GlcNAc
# How it was run: as §1
# [11] = molecular target: Fuc(a1-2)[Gal(a1-3)]Gal(b1-3)GlcNAc(b1-2)Man(a1-3)[Fuc(a1-2)[Gal(a1-3)]Gal(b1-3)GlcNAc(b1-2)Man(a1-6)]Man(b1-4)GlcNAc(b1-4)GlcNAc
# How it was run: as §1
# [12] = molecular target: Fuc(a1-2)[Gal(a1-3)]Gal(b1-3)GlcNAc(b1-2)Man(a1-3)[Fuc(a1-2)[Gal(a1-3)]Gal(b1-3)GlcNAc(b1-2)Man(a1-6)]Man(b1-4)GlcNAc(b1-4)[Fuc(a1-6)]GlcNAc
# How it was run: as §1
# [13] = molecular target: Fuc(a1-2)[Gal(a1-3)]Gal(b1-3)GlcNAc(b1-3)GalNAc
# How it was run: as §1
# [14] = molecular target: Fuc(a1-2)[Gal(a1-3)]Gal(b1-4)Glc
# How it was run: as §1
# [15] = molecular target: Fuc(a1-2)[Gal(a1-3)]Gal(b1-4)GlcNAc
# How it was run: as §1
# [16] = molecular target: Fuc(a1-2)[Gal(a1-3)]Gal(b1-4)GlcNAc(b1-2)Man(a1-3)[Fuc(a1-2)[Gal(a1-3)]Gal(b1-4)GlcNAc(b1-2)Man(a1-6)]Man(b1-4)GlcNAc(b1-4)GlcNAc
# How it was run: as §1
# [17] = molecular target: Fuc(a1-2)[Gal(a1-3)]Gal(b1-4)GlcNAc(b1-2)Man(a1-3)[Fuc(a1-2)[Gal(a1-3)]Gal(b1-4)GlcNAc(b1-2)Man(a1-6)]Man(b1-4)GlcNAc(b1-4)[Fuc(a1-6)]GlcNAc
# How it was run: as §1
# [18] = molecular target: Fuc(a1-2)[Gal(a1-3)]Gal(b1-4)GlcNAc(b1-3)GalNAc
# How it was run: as §1
# [19] = molecular target: Fuc(a1-2)[Gal(a1-3)]Gal(b1-4)[Fuc(a1-3)]Glc
# How it was run: as §1
# [20] = molecular target: Fuc(a1-2)[Gal(a1-3)]Gal(b1-4)[Fuc(a1-3)]GlcNAc
# How it was run: as §1
# [21] = molecular target: Fuc(a1-2)[Gal(a1-3)]Gal(b1-4)[Fuc(a1-3)]GlcNAc(b1-3)GalNAc
# How it was run: as §1
# [22] = molecular target: Fuc(a1-2)[Gal(a1-4)]Gal(b1-4)GlcNAc
# How it was run: as §1
# [23] = molecular target: Fuc(a1-2)[GalNAc(a1-3)]Gal
# How it was run: as §1
# [24] = molecular target: Fuc(a1-2)[GalNAc(a1-3)]Gal(b1-3)GalNAc(a1-3)[Fuc(a1-2)]Gal(b1-4)GlcNAc
# How it was run: as §1
# [25] = molecular target: Fuc(a1-2)[GalNAc(a1-3)]Gal(b1-3)GlcNAc
# How it was run: as §1
# [26] = molecular target: Fuc(a1-2)[GalNAc(a1-3)]Gal(b1-3)GlcNAc(b1-2)Man(a1-3)[Fuc(a1-2)[GalNAc(a1-3)]Gal(b1-3)GlcNAc(b1-2)Man(a1-6)]Man(b1-4)GlcNAc(b1-4)GlcNAc
# How it was run: as §1
# [27] = molecular target: Fuc(a1-2)[GalNAc(a1-3)]Gal(b1-3)GlcNAc(b1-2)Man(a1-3)[Fuc(a1-2)[GalNAc(a1-3)]Gal(b1-3)GlcNAc(b1-2)Man(a1-6)]Man(b1-4)GlcNAc(b1-4)[Fuc(a1-6)]GlcNAc
# How it was run: as §1
# [28] = molecular target: Fuc(a1-2)[GalNAc(a1-3)]Gal(b1-3)GlcNAc(b1-3)GalNAc
# How it was run: as §1
# [29] = molecular target: Fuc(a1-2)[GalNAc(a1-3)]Gal(b1-4)Glc
# How it was run: as §1
# [30] = molecular target: Fuc(a1-2)[GalNAc(a1-3)]Gal(b1-4)GlcNAc
# How it was run: as §1
# [31] = molecular target: Fuc(a1-2)[GalNAc(a1-3)]Gal(b1-4)GlcNAc(b1-2)Man(a1-3)[Fuc(a1-2)[GalNAc(a1-3)]Gal(b1-4)GlcNAc(b1-2)Man(a1-6)]Man(b1-4)GlcNAc(b1-4)GlcNAc
# How it was run: as §1
# [32] = molecular target: Fuc(a1-2)[GalNAc(a1-3)]Gal(b1-4)GlcNAc(b1-2)Man(a1-3)[Fuc(a1-2)[GalNAc(a1-3)]Gal(b1-4)GlcNAc(b1-2)Man(a1-6)]Man(b1-4)GlcNAc(b1-4)[Fuc(a1-6)]GlcNAc
# How it was run: as §1
# [33] = molecular target: Fuc(a1-2)[GalNAc(a1-3)]Gal(b1-4)GlcNAc(b1-3)Gal(b1-4)GlcNAc
# How it was run: as §1
# [34] = molecular target: Fuc(a1-2)[GalNAc(a1-3)]Gal(b1-4)GlcNAc(b1-3)Gal(b1-4)GlcNAc(b1-3)Gal(b1-4)GlcNAc
# How it was run: as §1
# [35] = molecular target: Fuc(a1-2)[GalNAc(a1-3)]Gal(b1-4)GlcNAc(b1-3)GalNAc
# How it was run: as §1
# [36] = molecular target: Fuc(a1-2)[GalNAc(a1-3)]Gal(b1-4)[Fuc(a1-3)]GlcNAc
# How it was run: as §1
# [37] = molecular target: Fuc(a1-2)[GalNAc(a1-3)]Gal(b1-4)[Fuc(a1-3)]GlcNAc(b1-3)GalNAc
# How it was run: as §1
# [38] = molecular target: Fuc(a1-2)[GalNAc(a1-4)]Gal(b1-4)GlcNAc
# How it was run: as §1
# [39] = molecular target: Fuc(a1-2)[GalNAc(b1-3)]Gal
# How it was run: as §1
# Fuc(a1-3)GlcNAc = molecular target: Fuc(a1-3)GlcNAc
# How it was run: as §1
# [40] = molecular target: Fuc(a1-3)[Gal(b1-4)]Glc6S
# How it was run: as §1
# [41] = molecular target: Fuc(a1-3)[Gal(b1-4)]GlcNAc
# How it was run: as §1
# [42] = molecular target: Fuc(a1-3)[Gal(b1-4)]GlcNAc(b1-2)Man(a1-3)[Fuc(a1-3)[Gal(b1-4)]GlcNAc(b1-2)Man(a1-6)]Man(b1-4)GlcNAc(b1-4)GlcNAc
# How it was run: as §1
binder,measurement,setting,value
B1,glycan array binding signal (z-score),[1],-0.324
same,glycan array binding signal (z-score),[2],3.5
same,glycan array binding signal (z-score),[3],2.59
same,glycan array binding signal (z-score),[4],-0.293
same,glycan array binding signal (z-score),[5],-0.411
same,glycan array binding signal (z-score),[6],4.04
same,glycan array binding signal (z-score),Fuc(a1-2)Gal6S(b1-4)Glc,-0.374
same,glycan array binding signal (z-score),[7],-0.325
same,glycan array binding signal (z-score),[8],-0.434
same,glycan array binding signal (z-score),Fuc(a1-2)[Gal(a1-3)]Gal,-0.448
same,glycan array binding signal (z-score),[9],-0.312
same,glycan array binding signal (z-score),[10],-0.312
same,glycan array binding signal (z-score),[11],-0.404
same,glycan array binding signal (z-score),[12],-0.374
same,glycan array binding signal (z-score),[13],-0.379
same,glycan array binding signal (z-score),[14],-0.398
same,glycan array binding signal (z-score),[15],-0.452
same,glycan array binding signal (z-score),[16],-0.485
same,glycan array binding signal (z-score),[17],-0.442
same,glycan array binding signal (z-score),[18],-0.398
same,glycan array binding signal (z-score),[19],-0.469
same,glycan array binding signal (z-score),[20],2.64
same,glycan array binding signal (z-score),[21],1.12
same,glycan array binding signal (z-score),[22],-0.398
same,glycan array binding signal (z-score),[23],-0.309
same,glycan array binding signal (z-score),[24],-0.345
same,glycan array binding signal (z-score),[25],-0.353
same,glycan array binding signal (z-score),[26],-0.408
same,glycan array binding signal (z-score),[27],-0.26
same,glycan array binding signal (z-score),[28],5.4
same,glycan array binding signal (z-score),[29],-0.404
same,glycan array binding signal (z-score),[30],-0.45
same,glycan array binding signal (z-score),[31],-0.3
same,glycan array binding signal (z-score),[32],-0.438
same,glycan array binding signal (z-score),[33],-0.143
same,glycan array binding signal (z-score),[34],-0.156
same,glycan array binding signal (z-score),[35],-0.389
same,glycan array binding signal (z-score),[36],0.793
same,glycan array binding signal (z-score),[37],4.86
same,glycan array binding signal (z-score),[38],-0.464
same,glycan array binding signal (z-score),[39],-0.347
same,glycan array binding signal (z-score),Fuc(a1-3)GlcNAc,-0.397
same,glycan array binding signal (z-score),[40],-0.02
same,glycan array binding signal (z-score),[41],-0.389
same,glycan array binding signal (z-score),[42],-0.279
